# The list shows a part of the results.
# Assays:
# Experiment in all cases: glycan array binding signal (z-score within array); higher = stronger binding
# Conditions in all cases: glycan notation: IUPAC condensed, linker removed; mutation: H59Q
# [1] = biological target: Fuc(a1-2)[GalNAc(a1-3)]Gal(b1-3)GlcNAc(b1-3)GalNAc
# Procedure, shortened: (§1)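 The Consortium for Functional Glycomics database supplied 3228 glycan arrays, of which those lacking an available protein sequence were dropped. The binding signal, a within-array Z-score, was averaged across arrays of the same protein sequence and across linkers. Negative scores can be read as non-binding.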
# [2] = biological target: Fuc(a1-2)[GalNAc(a1-3)]Gal(b1-3)GlcNAc(b1-6)GalNAc
# Procedure, shortened: as §1
# [3] = biological target: Fuc(a1-2)[GalNAc(a1-3)]Gal(b1-4)Glc
# Procedure, shortened: as §1
# [4] = biological target: Fuc(a1-2)[GalNAc(a1-3)]Gal(b1-4)GlcNAc
# Procedure, shortened: as §1
# [5] = biological target: Fuc(a1-2)[GalNAc(a1-3)]Gal(b1-4)GlcNAc(b1-2)Man
# Procedure, shortened: as §1
# [6] = biological target: Fuc(a1-2)[GalNAc(a1-3)]Gal(b1-4)GlcNAc(b1-2)Man(a1-3)[Fuc(a1-2)[GalNAc(a1-3)]Gal(b1-4)GlcNAc(b1-2)Man(a1-6)]Man(b1-4)GlcNAc(b1-4)GlcNAc
# Procedure, shortened: as §1
# [7] = biological target: Fuc(a1-2)[GalNAc(a1-3)]Gal(b1-4)GlcNAc(b1-2)Man(a1-3)[Fuc(a1-2)[GalNAc(a1-3)]Gal(b1-4)GlcNAc(b1-2)Man(a1-6)]Man(b1-4)GlcNAc(b1-4)[Fuc(a1-6)]GlcNAc
# Procedure, shortened: as §1
# [8] = biological target: Fuc(a1-2)[GalNAc(a1-3)]Gal(b1-4)GlcNAc(b1-3)Gal(b1-4)GlcNAc
# Procedure, shortened: as §1
# [9] = biological target: Fuc(a1-2)[GalNAc(a1-3)]Gal(b1-4)GlcNAc(b1-3)Gal(b1-4)GlcNAc(b1-3)Gal(b1-4)GlcNAc
# Procedure, shortened: as §1
# [10] = biological target: Fuc(a1-2)[GalNAc(a1-3)]Gal(b1-4)GlcNAc(b1-3)GalNAc
# Procedure, shortened: as §1
# [11] = biological target: Fuc(a1-2)[GalNAc(a1-3)]Gal(b1-4)GlcNAc(b1-3)[Fuc(a1-2)[GalNAc(a1-3)]Gal(b1-4)GlcNAc(b1-6)]GalNAc
# Procedure, shortened: as §1
# [12] = biological target: Fuc(a1-2)[GalNAc(a1-3)]Gal(b1-4)GlcNAc(b1-6)GalNAc
# Procedure, shortened: as §1
# [13] = biological target: Fuc(a1-2)[GalNAc(a1-3)]Gal(b1-4)[Fuc(a1-3)]GlcNAc
# Procedure, shortened: as §1
# [14] = biological target: Fuc(a1-2)[GalNAc(a1-3)]Gal(b1-4)[Fuc(a1-3)]GlcNAc(b1-3)GalNAc
# Procedure, shortened: as §1
# [15] = biological target: Fuc(a1-2)[GalNAc(a1-4)]Gal(b1-4)GlcNAc
# Procedure, shortened: as §1
# [16] = biological target: Fuc(a1-2)[GalNAc(b1-3)]Gal
# Procedure, shortened: as §1
# Fuc(a1-3)GlcNAc = biological target: Fuc(a1-3)GlcNAc
# Procedure, shortened: as §1
# [17] = biological target: Fuc(a1-3)[Gal(b1-4)]Glc6S
# Procedure, shortened: as §1
# [18] = biological target: Fuc(a1-3)[Gal(b1-4)]GlcNAc
# Procedure, shortened: as §1
# [19] = biological target: Fuc(a1-3)[Gal(b1-4)]GlcNAc(b1-2)Man
# Procedure, shortened: as §1
# [20] = biological target: Fuc(a1-3)[Gal(b1-4)]GlcNAc(b1-2)Man(a1-3)[Fuc(a1-3)[Gal(b1-4)]GlcNAc(b1-2)Man(a1-6)]Man(b1-4)GlcNAc(b1-4)GlcNAc
# Procedure, shortened: as §1
# [21] = biological target: Fuc(a1-3)[Gal(b1-4)]GlcNAc(b1-2)Man(a1-3)[Fuc(a1-3)[Gal(b1-4)]GlcNAc(b1-2)Man(a1-6)]Man(b1-4)GlcNAc(b1-4)[Fuc(a1-6)]GlcNAc
# Procedure, shortened: as §1
# [22] = biological target: Fuc(a1-3)[Gal(b1-4)]GlcNAc(b1-3)Gal(b1-3)[Fuc(a1-4)]GlcNAc
# Procedure, shortened: as §1
# [23] = biological target: Fuc(a1-3)[Gal(b1-4)]GlcNAc(b1-3)Gal(b1-4)[Fuc(a1-3)]GlcNAc
# Procedure, shortened: as §1
# [24] = biological target: Fuc(a1-3)[Gal(b1-4)]GlcNAc(b1-3)Gal(b1-4)[Fuc(a1-3)]GlcNAc(b1-3)Gal(b1-4)[Fuc(a1-3)]GlcNAc
# Procedure, shortened: as §1
# [25] = biological target: Fuc(a1-3)[Gal(b1-4)]GlcNAc(b1-3)GalNAc
# Procedure, shortened: as §1
# [26] = biological target: Fuc(a1-3)[Gal(b1-4)]GlcNAc(b1-6)GalNAc
# Procedure, shortened: as §1
# [27] = biological target: Fuc(a1-3)[Gal(b1-4)]GlcNAc(b1-6)[Gal(b1-3)GlcNAc(b1-3)]Gal(b1-4)Glc
# Procedure, shortened: as §1
# [28] = biological target: Fuc(a1-3)[Gal(b1-4)]GlcNAc6S
# Procedure, shortened: as §1
# [29] = biological target: Fuc(a1-3)[Gal3S(b1-4)]Glc
# Procedure, shortened: as §1
# [30] = biological target: Fuc(a1-3)[Gal3S(b1-4)]GlcNAc
# Procedure, shortened: as §1
# [31] = biological target: Fuc(a1-3)[Gal3S(b1-4)]GlcNAc6S
# Procedure, shortened: as §1
# [32] = biological target: Fuc(a1-3)[GalNAc(b1-4)]GlcNAc
# Procedure, shortened: as §1
# [33] = biological target: Fuc(a1-3)[GalNAc(b1-4)]GlcNAc6S
# Procedure, shortened: as §1
# Fuc(a1-4)GlcNAc = biological target: Fuc(a1-4)GlcNAc
# Procedure, shortened: as §1
# Fuc(b1-3)GlcNAc = biological target: Fuc(b1-3)GlcNAc
# Procedure, shortened: as §1
# Gal(a1-2)Gal = biological target: Gal(a1-2)Gal
# Procedure, shortened: as §1
# Gal(a1-3)Gal = biological target: Gal(a1-3)Gal
# Procedure, shortened: as §1
# Gal(a1-3)Gal(b1-3)GlcNAc = biological target: Gal(a1-3)Gal(b1-3)GlcNAc
# Procedure, shortened: as §1
# [34] = biological target: Gal(a1-3)Gal(b1-3)GlcNAc(b1-2)Man
# Procedure, shortened: as §1
# [35] = biological target: Gal(a1-3)Gal(b1-3)GlcNAc(b1-2)Man(a1-3)[Gal(a1-3)Gal(b1-3)GlcNAc(b1-2)Man(a1-6)]Man(b1-4)GlcNAc(b1-4)GlcNAc
# Procedure, shortened: as §1
# [36] = biological target: Gal(a1-3)Gal(b1-3)GlcNAc(b1-3)GalNAc
# Procedure, shortened: as §1
# [37] = biological target: Gal(a1-3)Gal(b1-3)GlcNAc(b1-6)GalNAc
# Procedure, shortened: as §1
# [38] = biological target: Gal(a1-3)Gal(b1-3)[Fuc(a1-4)]GlcNAc(b1-2)Man(a1-3)[Gal(a1-3)Gal(b1-3)[Fuc(a1-4)]GlcNAc(b1-2)Man(a1-6)]Man(b1-4)GlcNAc(b1-4)GlcNAc
# Procedure, shortened: as §1
# Gal(a1-3)Gal(b1-4)Glc = biological target: Gal(a1-3)Gal(b1-4)Glc
# Procedure, shortened: as §1
binder,measurement,setting,value
"rAAL-H59Q (Agrocybe aegerita), Q6WY08 (protein) MQGVNIYNISAGTSVDLAAPVTTGDIVTFFSSALNLNAGAGNPNNTTLNLFAENGAYLLQIAFRLQENVIIFNSRQPDGPWLVEQRVSDVANQFAGIDGKAMVTVFDHGDKYQVVINEKTVIQYTKQISGLTLSLSYNATEETSIFSTVVEAVTYTGLALEHHHHHH",glycan array binding signal (z-score),[1],-0.035
same,glycan array binding signal (z-score),[2],-0.176
same,glycan array binding signal (z-score),[3],-0.116
same,glycan array binding signal (z-score),[4],-0.081
same,glycan array binding signal (z-score),[5],-0.136
same,glycan array binding signal (z-score),[6],-0.084
same,glycan array binding signal (z-score),[7],-0.055
same,glycan array binding signal (z-score),[8],-0.098
same,glycan array binding signal (z-score),[9],-0.053
same,glycan array binding signal (z-score),[10],-0.084
same,glycan array binding signal (z-score),[11],-0.096
same,glycan array binding signal (z-score),[12],-0.124
same,glycan array binding signal (z-score),[13],-0.058
same,glycan array binding signal (z-score),[14],-0.027
same,glycan array binding signal (z-score),[15],-0.064
same,glycan array binding signal (z-score),[16],-0.062
same,glycan array binding signal (z-score),Fuc(a1-3)GlcNAc,-0.127
same,glycan array binding signal (z-score),[17],-0.092
same,glycan array binding signal (z-score),[18],-0.072
same,glycan array binding signal (z-score),[19],-0.099
same,glycan array binding signal (z-score),[20],-0.108
same,glycan array binding signal (z-score),[21],0
same,glycan array binding signal (z-score),[22],-0.096
same,glycan array binding signal (z-score),[23],-0.091
same,glycan array binding signal (z-score),[24],-0.156
same,glycan array binding signal (z-score),[25],-0.074
same,glycan array binding signal (z-score),[26],-0.126
same,glycan array binding signal (z-score),[27],-0.045
same,glycan array binding signal (z-score),[28],0.026
same,glycan array binding signal (z-score),[29],-0.044
same,glycan array binding signal (z-score),[30],-0.078
same,glycan array binding signal (z-score),[31],-0.128
same,glycan array binding signal (z-score),[32],-0.044
same,glycan array binding signal (z-score),[33],-0.05
same,glycan array binding signal (z-score),Fuc(a1-4)GlcNAc,-0.056
same,glycan array binding signal (z-score),Fuc(b1-3)GlcNAc,-0.053
same,glycan array binding signal (z-score),Gal(a1-2)Gal,-0.11
same,glycan array binding signal (z-score),Gal(a1-3)Gal,-0.084
same,glycan array binding signal (z-score),Gal(a1-3)Gal(b1-3)GlcNAc,-0.068
same,glycan array binding signal (z-score),[34],-0.107
same,glycan array binding signal (z-score),[35],-0.06
same,glycan array binding signal (z-score),[36],-0.039
same,glycan array binding signal (z-score),[37],-0.04
same,glycan array binding signal (z-score),[38],-0.014
same,glycan array binding signal (z-score),Gal(a1-3)Gal(b1-4)Glc,-0.07
